Reference: PubChem BioAssay AID1508642 (National Center for Advancing Translational Sciences (NCATS), 2021)
The whole screen tested about 43,000 compounds, of which about 200 (0.47%) were called active. Not shown: some 12% with an inconclusive outcome. Calls come from the whole dose curve; as a rule, active = well fitted cell-killing curve with a large enough effect; inconclusive = small, poorly fitted or top-dose-only effect, or effect the other way; inactive = flat fitted curve, though single readings scatter. This is one part of the list.

Experiment: Cell viability qHTS assay in S16 Pmp22-F2sN cells; note: nearly all actives have a fitted effect of over 65% in size
Conditions: S16 Pmp22-F2sN Schwann cells (luciferase reporters placed in the Pmp22 gene) viability, CellTiter-Glo, 24 h; series mostly up to 57.5 µM; activity change, negative = cytotoxicity: at the top concentration
How it was run: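 S16 Schwann cells carrying the Pmp22-F2sN reporter, seeded in 1536-well format, were exposed to library compounds for 24 h at 37C. Viability was read as CellTiter-Glo luminescence after 15 min at room temperature.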
% is set by controls: 0 for no effect and ±100 for the full control effect.

Structure (SMILES) | activity change, negative = cytotoxicity
CN(Cc1ccccc1)C(=O)C1CCN(S(=O)(=O)c2ccc3nc4c(c(C(=O)O)c3c2)CCCC4)CC1 | inactive: 7.11%
COc1ccc(CNC(=O)C2CCN(C(=O)N3CC(C)Oc4ccc(C)cc43)CC2)cc1 (configuration not stated) | inactive: -11.2%
Cn1c(=O)c2sccc2n2c(CCC(=O)NCc3ccccc3Cl)nnc12 | inactive: 17%
CCn1cc(C(=O)NCCc2ccc(C)cc2)c(=O)c2cc(S(=O)(=O)N3CCCCC3)ccc21 | inactive: 7.85%
CCOc1ccc(C(=O)Nc2cc(-c3cn4cccnc4n3)ccc2C)cc1OCC | inactive: 0.0726%
COc1ccccc1C(=O)Nc1c(C(=O)N(C)c2ccccc2)sc2nc(C)cc(C)c12 | inactive: 1.07%
Cc1cccc(NC(=O)c2oc3ccccc3c2NC(=O)c2cc(=O)c3cc(Cl)ccc3o2)c1 | inactive: 5.63%
Cn1c(SCC(=O)c2ccc(F)cc2)nnc1-c1ccccc1Br | inactive: -1.65%
COc1cccc(CNC(=O)CSc2ncc(S(=O)(=O)c3ccc(Br)cc3)c(=O)[nH]2)c1 | inactive: -0.872%
Cc1c(C(=O)Nc2ccc(C(C)C)cc2)sc2nc[nH]c(=O)c12 | inactive: -29.5%
COc1ccc(CNC(=O)c2ccc3c(c2)CCN3S(=O)(=O)c2ccc(C)cc2)cc1 | inactive: 0.364%
Cc1ccc(NC(=O)C2CCCN2S(=O)(=O)c2cccc3nsnc23)cc1Cl (configuration not stated) | inactive: 9.69%
COc1ccc(CNC(=O)CSc2ncc(S(=O)(=O)c3ccc(C)c(Cl)c3)c(=O)[nH]2)cc1 | inactive: 1.25%
Cc1ccccc1C(=O)N1CCN(CCc2ccccn2)CC1 | inactive: -4.39%
CC1CCN(S(=O)(=O)c2ccc3c(c2)CCN3C(=O)Nc2ccc(Br)cc2)CC1 | inactive: 2.47%
CN(C)c1ccc(CNS(=O)(=O)c2ccc3[nH]c4c(c3c2)CCCCC4)cc1 | inactive: -0.0291%
COc1ccc(Br)cc1CNC(=O)c1nn(-c2ccc(C)cc2)c(=O)c2c1c1ccccc1n2C | inactive: -2.55%
Cc1ccc(CNC(=O)c2c(O)nc3c(C)cccn3c2=O)cc1 | inactive: -1.96%
Cc1nc2ccc(S(=O)(=O)NC(CC(C)C)C(=O)N3CCN(c4ccc(F)cc4)CC3)cc2s1 (configuration not stated) | inactive: -16.3%
COc1ccc(CCNC(=O)CSc2nnnn2-c2cccc(C(C)=O)c2)cc1OC | inactive: 1.32%
O=C(C1CC1)N1CCN(c2nc3c(Cl)cccc3s2)CC1 | inactive: -6.84%
Fc1ccc(Cc2cn3cc(-c4ccccc4)nc3s2)cc1 | inactive: 14.7%
CCOC(=O)c1ccc(NC(=O)c2csnn2)cc1 | inactive: 0.119%
CCOC(=O)c1cccc(NC(=O)CCC(=O)N2CC(C)Oc3ccc(C)cc32)c1 (configuration not stated) | inactive: -5.73%
Cc1ccccc1-c1noc(-c2cccnc2N(C)Cc2ccc(Cl)cc2)n1 | inactive: 1.65%
O=C(Cn1c(=O)nc(-c2ccccc2)c2ccccc21)NCc1ccc(F)cc1 | inactive: 7.44%
Cc1cccc(NC2=CC(c3cccc(Br)c3)N(c3cccc(C)c3)C2=O)c1 (configuration not stated) | inactive: 2.57%
